Measured values as given in patent US8741883B2, “Compounds and methods for the diagnosis and treatment of amyloid associated diseases” (The Regents of the University of California—San Diego, priority 2005, dated 2014).

Columns and labels:
[1] = target: ABAD-A-beta fibril interactions (Homo sapiens, UniProt P05067); assay: Inhibition of ABAD-A-beta fibril interactions (ELISA); format: binding; settings: for total inhibition of ABAD-A-beta fibril interaction: concentrations above 4 mM (ThT at similar concentrations)
Description: (Yan., S. D., et al., J. Biol. Chem. 1999:274:2145-2156); […]. Shi, A. Zhu, J. Fu, H. Zhu, Y. Zhu, L. Gibson, E. Stem, K. Collison, F. Al-Mohanna, S. Ogawa, A. Roher, […]. Stern, J. Biol. Chem. 1999, 274(4), 2145-2156; S. D. Yan, et al., Biochim. Biophys. Acta 2000:1502:145-157). […] Error bars represent standard deviations.

[2] = target: catalase-A-beta fibril interaction (Homo sapiens, UniProt P05067); assay: Inhibition of catalase-A-beta fibril interactions (ELISA); settings: for maximum total inhibition of catalase-A-beta fibril interaction: ThT: at 3 mM and higher
[3] = target: anti-A-beta IgG (clone 6E10)-A-beta fibril interactions (Homo sapiens, UniProt P05067)
[4] = target: binding of the anti-A-beta IgG (clone 6E10) to the A-beta fibrils (Homo sapiens, UniProt P05067); assay: ELISA-based inhibition of anti-A-beta IgG (clone 6E10) binding to ThT-coated A-beta fibrils; settings: control compound, FIG. 2c
[5] = target: A-beta fibrils; settings: by fluorescence, several groups; cited from earlier work

SMILES | IC50 [1] [µM] | total inhibition of ABAD-A-beta fibril interaction [1] [%] | IC50 [2] [µM] | maximum total inhibition of catalase-A-beta fibril interaction [2] [%] | other results
Cc1ccc2nc(-c3ccc(NCCOCCOCCOCCO)cc3)sc2c1 [BTA-EG4] | 100 to 500 | ~75 | 590 | 91 | –
Cc1ccc2nc(-c3ccc(NCCOCCOCCOCCOCCOCCO)cc3)sc2c1 [BTA-EG6] | 100 to 500 | ~75 | 36 | 92 | –
CN1CCC[C@@H]1c1cccnc1 [D-nicotine] | – | – | – | – | efficacy in the IgG-A-beta inhibition assay (not shown in FIG. 4) [3]: good efficacy
O=S(=O)([O-])c1ccc(O)c2ccccc12.[Na+] [I-naphthol-4-sulfonate, 1-naphthol-4-sulfonate] | – | – | – | – | inhibition of the interaction between the IgGs and A-beta fibrils (control experiments) [4]: No inhibition
Cc1ccc2c(c1)sc(-c1ccc(N(C)C)cc1)[n+]2C.[Cl-] [ThT, Thioflavin T] | – | – | – | – | Kd for binding to A-beta fibrils [5]: high nM to low μM
